According to the supplement of paper PMC3334620:
In all, about 33,000 sequences were measured (“E-score (-0.5 to 0.5)”: median about -0.054, highest 2% from about 0.35 on). The list shows a part of the results.

target: T1, Stb5 (UniProt P38699); experiment: PBM E-score (8-mer binding enrichment) (E-score (-0.5 to 0.5)); higher = stronger / more preferred TF binding; most listed sequences are background and not binding sites; conditions: protein concentration: 200 nM; construct: GST-full length
T1 sequence: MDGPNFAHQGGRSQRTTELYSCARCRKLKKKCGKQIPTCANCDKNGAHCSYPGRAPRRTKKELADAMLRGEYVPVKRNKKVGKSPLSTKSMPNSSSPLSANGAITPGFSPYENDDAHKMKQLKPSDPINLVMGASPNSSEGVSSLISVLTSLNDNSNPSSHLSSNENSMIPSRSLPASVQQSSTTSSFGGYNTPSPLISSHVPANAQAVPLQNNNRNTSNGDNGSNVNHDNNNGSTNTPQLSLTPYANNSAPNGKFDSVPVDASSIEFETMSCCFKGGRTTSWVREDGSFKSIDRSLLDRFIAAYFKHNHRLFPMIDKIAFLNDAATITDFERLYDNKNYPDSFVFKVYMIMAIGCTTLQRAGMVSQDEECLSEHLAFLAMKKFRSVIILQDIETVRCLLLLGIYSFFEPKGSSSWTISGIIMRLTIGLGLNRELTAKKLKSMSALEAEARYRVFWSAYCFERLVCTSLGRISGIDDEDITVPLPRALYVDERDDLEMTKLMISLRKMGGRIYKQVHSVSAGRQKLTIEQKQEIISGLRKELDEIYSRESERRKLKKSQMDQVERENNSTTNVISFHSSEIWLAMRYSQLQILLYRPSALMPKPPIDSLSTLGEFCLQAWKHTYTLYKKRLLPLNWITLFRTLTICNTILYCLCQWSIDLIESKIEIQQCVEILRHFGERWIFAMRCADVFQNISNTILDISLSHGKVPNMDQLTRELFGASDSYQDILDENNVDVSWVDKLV
Experimental: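 Universal 'all 10-mer' protein binding microarrays (Agilent AMADID 015681) probed with GST-tagged S. cerevisiae TFs (full-length or DBD) made by in vitro transcription/translation (PURExpress), about 100-200 nM. Bound TF was detected with fluorescent anti-GST. Each ungapped 8-mer (which stands for itself and its reverse complement) is scored by the PBM enrichment score (E-score), a modified Wilcoxon-Mann-Whitney statistic from -0.5 to +0.5, computed with the Universal PBM Analysis Suite. Scale: above 0.35 generally sequence-specific binding.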

Sequence | PBM E-score
ATTTACAG | -0.193
AAGTGTCT | -0.215
AAAGAGTC | 0.00738
GCACCGCA | 0.361
ACAGATTC | -0.0825
AGGTGAAG | -0.154
TGTCGACA | -0.0858
GTACATAA | 0.0602
ACCGCCAC | 0.316
ATCGGCAA | 0.265
ACTGCAGC | -0.0924
AAGGAATT | -0.124
GCCGCCCC | 0.388
TGACACAA | -0.178
CCATCCCA | -0.035
AATGTGTC | 0.0439
CCCTTAGA | -0.221
CGTTCTCA | -0.101
GGTTCGAC | 0.0376
CAACCATC | -0.0877
ACTACGCA | -0.0387
AACGGGCC | 0.147
CAGAGAGC | -0.164
AGTGCATA | -0.112
ATCTCCCC | 0.0718

Sequence | PBM E-score
ACAAATTA | 0.0545
ATGGGTCA | -0.28
CTATGCAC | -0.212
TGAGCCAA | -0.167
GACACACC | 0.154
CAACTGGA | -0.0931
GATGCGCC | 0.0417
AAGAATTG | -0.0152
TAGCCATA | -0.279
ATGGGAGC | -0.051
ACGCTAGC | -0.149
AGAATTAC | 0.0808
GAATGTCA | -0.167
CTCACACA | -0.226
CCAGACCA | -0.219
GCTAGAAA | -0.0115
AGATATCG | -0.08
AGGGACCG | 0.218
CGACGGGA | 0.297
AGTAGTAA | -0.263
CTCTTGAA | -0.13
CACTGTGA | -0.0856
AATTAGAC | -0.0897
ATTGGTCA | -0.159
AGGAGCGA | 0.0201

Sequence | PBM E-score
ATCCGGCA | 0.149
ATGACTAG | -0.128
ATCATCGA | -0.0985
ATAGAACG | -0.078
TACGCAAA | -0.23
AGTCGAGA | -0.281
AAAGGCAG | -0.164
TAGTGGCA | -0.0544
TCAACGGA | 0.147
CAACGATC | -0.0986
CGGTACAG | 0.098
CCGATCTC | 0.262
AGTGAATC | -0.107
AAGGACCT | 0.00048
CGGTTAAG | -0.0893
CACATCCG | 0.0898
GAATCCCC | 0.156
GCAAGAGC | -0.0719
CGATGACG | 0.184
ACTCAGTC | -0.319
GCCAGTCA | -0.18
GCCCTCTA | -0.0386
AGCATAAT | -0.00157
GCAGGGCA | -0.185
ACGCTCAG | -0.207

Sequence | PBM E-score
AAAACATG | -0.197
CAGTTACA | -0.0584
AGCTGATC | -0.0518
GCGATTCA | 0.00506
CTCTCGAC | -0.236
CCTACCAG | -0.191
GCATACTA | -0.068
CCTAGCTA | -0.0995
CCGGGTCA | 0.176
CACATTTA | -0.221
CAGAAAGA | -0.147
TGAAATCA | -0.153
CCCATTCA | -0.175
ACTTGAAA | -0.0604
ATACAACC | 0.207
ACCGATGA | 0.264
CGTTTGGC | 0.0428
ATGGCCGC | 0.308
AGGTTGTG | -0.231
CACGTAGA | -0.271
CGACTAAC | 0.00814
GAACCCCA | 0.0175
AAGAGGCT | -0.157
ACATCTTC | 0.09
GGTCGGCA | 0.375

Sequence | PBM E-score
GATCGCGC | 0.119
TCCCTAGA | -0.0216
CAACCTGA | -0.324
CGTTCATA | -0.00798
CACGATAA | 0.1
CATGCCGC | 0.312
ACCGTTAA | 0.29
GAGTTTGA | -0.0751
ACCTGGCC | -0.266
CATATACG | 0.0803
ACGGAAAC | 0.0965
AACAAGGA | -0.14
CCTGGGCG | 0.00069
GGAGCTCC | 0.234
ATTTATCG | 0.00233
CGAGTGCC | -0.0896
AACTGCGC | 0.211
AGGGGAAA | -0.267
AATTGGCG | 0.063
CCGTGACG | 0.19
AAGATTTG | -0.112
CAACGTCC | 0.125
GATGATGA | -0.091
GTAGCCAC | -0.184
ATTACTCC | 0.237

Sequence | PBM E-score
AAGATTGT | 0.0159
GAGTAGGA | -0.145
AAGATATC | -0.0867
CAACTAGA | 0.0187
CTATTTGC | -0.0716
CCTCGTTA | -0.341
AAATTACA | 0.0977
CGCACTTC | 0.0228
CTTATATA | 0.0596
GCGGCTTA | 0.165
GTCAAATA | -0.0305
GCGTACAA | -0.226
CACGGCTC | 0.0891
ACTATGCG | 0.00945
CTCGCATC | -0.124
AATGGTCT | -0.118
ATGACCTC | -0.132
AGCATGAA | -0.195
GGGCAAGA | 0.0117
ACTCAGCG | -0.056
GATTAGAA | -0.0718
CTTCAGAC | -0.125
CTATGTTA | 0.122
CATGTACA | -0.155
CCGTTTAC | 0.082

Sequence | PBM E-score
AAGTGTGC | -0.259
CACTACCA | -0.00408
GCTGTTAC | 0.183
AACCAACT | -0.218
GTAGAGAC | -0.229
ATTTGGTC | -0.0368
ACATAACC | 0.116
ACGCATCC | -0.104
CAGCGTGG | -0.165
CCTTTTGA | -0.106
GCCGAGAA | 0.117
AGTTTCTA | 0.033
CTTTCAGC | 0.119
CGGCTATA | 0.367
AACCCCTT | 0.0178
TCGATTAA | -0.242
AGTGCGCC | 0.028
CAAGCACC | 0.0493
GACTCGAC | -0.203
CTTACCTA | -0.28
CTCCAAAA | -0.1
GCCTGGTA | -0.0959
